Laboratory results from PubChem BioAssay AID686979 (National Center for Advancing Translational Sciences (NCATS), 2013).
Out of some 420,000 compounds screened, about 50,000 (12%) were called active. The shares of active, inactive and inconclusive entries below differ from those in the screen. Calls follow the shape of the dose curve; as a rule, active = well fitted inhibition curve with a large enough effect; inconclusive = small, poorly fitted or top-dose-only effect; inactive = flat fitted curve, though single readings scatter. Potencies of inconclusive entries are left out as doubtful fits.

assay: qHTS for Inhibitors of human tyrosyl-DNA phosphodiesterase 1 (TDP1): qHTS in cells in presence of CPT; conditions: chicken DT40 Tdp1-/-;hTDP1 cells + 20 nM CPT, ATP luminescence, 48 h; activity change, negative = growth inhibition: at 46.2 µM (top of the series); also: nearly all actives have a fitted effect of over 55% in size
Summary of the method: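 Cell growth measured by CellTiter-Glo luminescence after a minimum 48 h, 37 C compound exposure with 20 nM CPT in Tdp1-knockout DT40 cells stably expressing hTDP1, seeded 400/well; qHTS titration format.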
% is scaled to controls: 0 for no effect and ±100 for the full control effect; potency is read from the fitted curve at half-maximal effect; tags tell the direction and shape of the fitted curve.

Compound | activity change, negative = growth inhibition | Potency
COc1ccccc1C(CNC(=O)c1ccc(S(=O)(=O)N2CCCCC2)cc1)N(C)C (stereo not given) | inactive: 5.82% | 
COc1ccc(OCC(=O)NC2CC(C)(C)NC(C)(C)C2)cc1 | inconclusive: -6.48% [inhibitor] | 
Cn1cccc1C(C#N)c1cccc(F)c1C#N (stereo not given) |  | inconclusive [inhibitor, single point]
CCc1ccc(-c2cn(-c3nc(C)cc(C)n3)c(=N)o2)cc1 |  | inconclusive [inhibitor, single point]
CC1CCN(S(=O)(=O)c2ccc(C(=O)N3CCOCC3)cc2)CC1 | inactive: -4.92% | 
CCOC(=O)c1cnc(SC)nc1Nc1cccc(F)c1 | inactive: -20.1% | 
COc1ccc2oc(C(=O)Nc3nc4ccccc4[nH]3)c(C)c2c1 |  | active: 20.6 µM
Cc1c(O[C@@H]2O[C@H](CO)[C@@H](O)[C@H](O)[C@H]2O)ccc2c1oc(=O)c1ccccc12 |  | inconclusive [inhibitor, single point]
COC(=O)c1cccc(CN2C(=O)C(C)Sc3ccc(C(C)=O)cc32)c1 (stereo not given) |  | inconclusive [inhibitor, single point]
CCOc1ccccc1C(=O)NC(C)CCc1ccccc1 (stereo not given) |  | inconclusive [inhibitor, single point]
CCN(C(=O)COc1cc(=O)n(C)c2ccccc12)c1cccc(Cl)c1 |  | inconclusive [inhibitor, single point]
Cc1ccc2cc(C(c3nnnn3C3CCCC3)N(Cc3cccnc3)Cc3ccco3)c(=O)[nH]c2c1 (stereo not given) |  | inconclusive [inhibitor, partial curve]
CCOc1ccc(N2CC(c3nc4ccccc4n3CCOc3ccc(CC)cc3)CC2=O)cc1 (stereo not given) |  | inconclusive [inhibitor, single point]
COc1ccc(S(=O)(=O)Nc2c(C(=O)O)[nH]c3ccccc23)cc1OC | inactive: -7.11% | 
O=C(Cc1csc(NC(=O)c2ccc(F)cc2)n1)NO |  | inconclusive [inhibitor, partial curve, poor fit]
COc1ccc(CN2CCC[C@]3(N[C@H](c4ccc(C(F)(F)F)cc4)[C@@H]4C(=O)N(Cc5ccccc5)C(=O)[C@@H]43)C2=O)cc1 |  | inconclusive [inhibitor, single point]
COC(=O)c1ccc(C)cc1C1CN=NC12Cc1cc(C)ccc1C2=O (stereo not given) |  | inconclusive [inhibitor, single point]
COc1ccccc1NS(=O)(=O)c1cc(NC(=O)c2cc3ccccc3oc2=O)ccc1C |  | inconclusive [inhibitor, partial curve]
O=C(c1ccncc1)N1CCN(S(=O)(=O)c2cc(C(F)(F)F)cc(C(F)(F)F)c2)CC1 |  | inconclusive [inhibitor, partial curve]
C=C(C)CNC(=S)N/N=C/C1=CCC2CC1C2(C)C (stereo not given) |  | active: 7.31 µM
Cc1ccccc1C(=O)OC1OC(=O)C(Cl)=C1Nc1ccc(C(=O)O)cc1 (stereo not given) |  | inconclusive [inhibitor, single point]
O=C(NC1CCN(Cc2ccccc2)CC1)c1ccc(Oc2cc(Cl)cc(Cl)c2)o1 |  | inconclusive [inhibitor, single point]
COc1ccc(NC(=O)c2ccc3ccccc3n2)cc1S(=O)(=O)Nc1ccccc1Cl |  | inconclusive [inhibitor, single point]
COc1ccccc1-c1cc(C(F)(F)F)nc(N2CCCC2)n1 | inactive: -13.9% | 

Compound | activity change, negative = growth inhibition | Potency
CCCOc1ccc(C(=O)NCc2cccnc2)cc1 | inconclusive: -33.2% [inhibitor] | 
C=CCn1c(SCCOc2ccc(OC)cc2)nnc1C(C)NC(=O)c1ccc(OC)cc1 (stereo not given) |  | inconclusive [inhibitor, partial curve, poor fit]
CCOc1ccc(-c2cc(N)n(S(=O)(=O)c3ccc(OC)cc3)n2)cc1 |  | inconclusive [inhibitor, partial curve, poor fit]
COc1ccccc1-c1noc(-c2ccc(NC(C)C)c([N+](=O)[O-])c2)n1 |  | inconclusive [inhibitor, single point]
COc1cc(C(=O)/C=C/c2cccnc2)c([N+](=O)[O-])cc1OC |  | active: 5.17 µM
C=CC(COCc1ccccc1)N(Cc1ccccc1)S(=O)(=O)c1ccccc1Br (stereo not given) |  | inconclusive [inhibitor, single point]
NC(=O)NN=C1c2cc(S(=O)(=O)N3CCOCC3)ccc2-c2ccc(S(=O)(=O)N3CCOCC3)cc21 |  | inconclusive [inhibitor, full curve]
COc1cc2c(cc1OC)C(C)N(C(=O)c1sccc1C)CC2 (stereo not given) |  | inconclusive [inhibitor, single point]
O=C(O)c1ccc(/C=C/c2nc3ccccc3c(=O)[nH]2)cc1 | inactive: -6.77% | 
O=C(CSc1nncc(=O)[nH]1)NC1CCCCC1 | inactive: -3.59% | 
COc1ccc(CNc2ncnc3cc(Cl)ccc23)cc1 |  | active: 14.6 µM
CC1(C)C(c2ccccc2)=NC(c2ccc(Br)cc2)N1O (stereo not given) | inactive: 16.7% | 
CCc1ccc(OCCCn2c(CCNC(=O)C3CCCCC3)nc3ccccc32)cc1 | inconclusive: -17.4% [inhibitor] | 
C=CCNC(=S)NCC1COc2ccccc2O1 (stereo not given) | inactive: 1.45% | 
COC(=O)C1=C(C(=O)OC)SC2(S1)C(C(=O)OC)=C(C(=O)OC)SC1=C2c2cc(C)cc(C)c2NC1(C)C |  | inconclusive [inhibitor, single point]
CCOC(=O)CSc1nnc(NC(=O)c2cccc(S(=O)(=O)N3CCCC3)c2)s1 |  | inconclusive [inhibitor, full curve, poor fit]
COc1ccc(-c2nn(-c3cccc(F)c3)c3c2cnc2cc(OC)c(OC)cc23)cc1 |  | inconclusive [inhibitor, partial curve]
c1ccc(-c2cc(-c3ccncc3)nc3ccc4ccccc4c23)cc1 |  | inconclusive [inhibitor, single point]
OC(c1ccccc1)c1nc(-c2cc3ccccc3o2)cs1 (stereo not given) | inactive: -27.5% | 
Cc1ccc2cccc(NS(=O)(=O)c3ccccc3)c2n1 |  | inconclusive [inhibitor, single point]
COc1cc(C#N)ccc1OCC(=O)Nc1ccc(C)c(S(=O)(=O)N2CCOCC2)c1 |  | inconclusive [inhibitor, partial curve]
CCn1nnnc1-c1ccc(OC)c(S(=O)(=O)NCCc2ccccc2)c1 | inactive: -6.72% | 
CSCC[C@H](NC(=O)c1ccc(Cl)c([N+](=O)[O-])c1)c1nc2ccccc2[nH]1 |  | inconclusive [inhibitor, single point]
CC1CCN(C(=O)COC(=O)c2ccc([N+](=O)[O-])o2)CC1 | inactive: -21.1% | 

Compound | activity change, negative = growth inhibition | Potency
CCOc1ccccc1CN1CCC(n2nccc2NC(=O)CCCc2ccccc2)CC1 |  | inconclusive [inhibitor, single point]
O=C(OC1CCOC1=O)c1ccc(NS(=O)(=O)c2cccs2)cc1 (stereo not given) | inactive: -18.5% | 
COc1ccc(-c2cc(C(F)(F)F)n3nc(C(=O)N(C)Cc4ccccc4)cc3n2)cc1OC |  | active: 16.4 µM
O=C(Nc1ccon1)C1CCN(S(=O)(=O)c2cccs2)CC1 |  | inconclusive [inhibitor, single point]
COc1ccc2[nH]cc(S(=O)(=O)c3ccc(C)c(C)c3)c(=O)c2c1 | inactive: -12.6% | 
CCOC(=O)c1sc2nc(C)nc(NCc3ccccc3)c2c1C |  | active: 10.3 µM
Cc1[nH]c2ccccc2c1SCC(=O)NC1CCCCC1 |  | inconclusive [inhibitor, single point]
CN1CCN(CCC2Oc3cc([N+](=O)[O-])ccc3NC2=O)CC1 (stereo not given) | inactive: 19.7% | 
CC(=O)Nc1ccc(NC(=O)CN(c2cc(Cl)ccc2Cl)S(C)(=O)=O)cc1 | inactive: 6.77% | 
CC1(C)Cc2c(ccc3ccccc23)C2=C(C(=O)N3CCCC3)C(=O)C(=O)N21 |  | active: 8.2 µM
COc1cccc(C2CC(c3ccccc3Cl)n3nc(N)nc3N2)c1 (stereo not given) |  | inconclusive [inhibitor, full curve, poor fit]
CC(C)c1ccc(NC(=O)CSc2nc(-c3ccccc3F)nc3nc[nH]c23)cc1 |  | inconclusive [inhibitor, single point]
FC(F)(F)c1ccccc1-c1cc(NCc2ccccc2)ncn1 |  | active: 7.31 µM
C[C@@H]1CN([C@@H](C)CO)C(=O)c2cc(C#CCN(C)C)cnc2O[C@H]1CN(C)Cc1ccc2c(c1)OCO2 | inactive: 21.4% | 
CCc1ccc(C2c3[nH]c4ccccc4c3CCN2C(=O)CNC(N)=O)cc1 (stereo not given) | inactive: -13.5% | 
Cc1cccc(/C=N/NC(=O)c2cc(-c3cccnc3)nc3c2c(C)nn3-c2ccccc2)c1 |  | inconclusive [inhibitor, single point]
Cc1ccc(S(=O)ONc2cccc(NOS(=O)c3ccc(C)cc3)c2)cc1 (stereo not given) |  | inconclusive [inhibitor, single point]
CCc1ccc(NC(=O)Cn2cc(S(=O)(=O)N3CCCC3)c(S(=O)(=O)N3CCCC3)c2)cc1 | inactive: -2.34% | 
CCOC(=O)CSc1nnc(CNc2ccccc2Cl)n1-c1ccccc1 | inconclusive: -13.7% [inhibitor] | 
S=C(NCc1ccco1)N1CCN(c2nc(-c3ccccc3)cs2)CC1 |  | inconclusive [inhibitor, single point]
COc1ccc(C(=O)NCC(=O)N/N=C/c2ccco2)cc1OC | inconclusive: -31.8% [inhibitor] | 
N#Cc1cc([N+](=O)[O-])ccc1Oc1cccc(/C=N/NC(=O)c2cccc(Cl)c2)c1 |  | inconclusive [inhibitor, single point]
